{"source": "paper PMC4336329", "about": "(PLoS ONE, 2015)", "note": "In all, about 310,000 compounds went through this assay and about 2,200 (0.71%) showed an effect of 50% or more. The effect is printed as a negative number. The list shows a part of the results.", "data": [{"target": "human ether-à-go-go-related gene (hERG) potassium channel (human, UniProt Q12809)", "sequence (Q12809 whole entry, looked up)": "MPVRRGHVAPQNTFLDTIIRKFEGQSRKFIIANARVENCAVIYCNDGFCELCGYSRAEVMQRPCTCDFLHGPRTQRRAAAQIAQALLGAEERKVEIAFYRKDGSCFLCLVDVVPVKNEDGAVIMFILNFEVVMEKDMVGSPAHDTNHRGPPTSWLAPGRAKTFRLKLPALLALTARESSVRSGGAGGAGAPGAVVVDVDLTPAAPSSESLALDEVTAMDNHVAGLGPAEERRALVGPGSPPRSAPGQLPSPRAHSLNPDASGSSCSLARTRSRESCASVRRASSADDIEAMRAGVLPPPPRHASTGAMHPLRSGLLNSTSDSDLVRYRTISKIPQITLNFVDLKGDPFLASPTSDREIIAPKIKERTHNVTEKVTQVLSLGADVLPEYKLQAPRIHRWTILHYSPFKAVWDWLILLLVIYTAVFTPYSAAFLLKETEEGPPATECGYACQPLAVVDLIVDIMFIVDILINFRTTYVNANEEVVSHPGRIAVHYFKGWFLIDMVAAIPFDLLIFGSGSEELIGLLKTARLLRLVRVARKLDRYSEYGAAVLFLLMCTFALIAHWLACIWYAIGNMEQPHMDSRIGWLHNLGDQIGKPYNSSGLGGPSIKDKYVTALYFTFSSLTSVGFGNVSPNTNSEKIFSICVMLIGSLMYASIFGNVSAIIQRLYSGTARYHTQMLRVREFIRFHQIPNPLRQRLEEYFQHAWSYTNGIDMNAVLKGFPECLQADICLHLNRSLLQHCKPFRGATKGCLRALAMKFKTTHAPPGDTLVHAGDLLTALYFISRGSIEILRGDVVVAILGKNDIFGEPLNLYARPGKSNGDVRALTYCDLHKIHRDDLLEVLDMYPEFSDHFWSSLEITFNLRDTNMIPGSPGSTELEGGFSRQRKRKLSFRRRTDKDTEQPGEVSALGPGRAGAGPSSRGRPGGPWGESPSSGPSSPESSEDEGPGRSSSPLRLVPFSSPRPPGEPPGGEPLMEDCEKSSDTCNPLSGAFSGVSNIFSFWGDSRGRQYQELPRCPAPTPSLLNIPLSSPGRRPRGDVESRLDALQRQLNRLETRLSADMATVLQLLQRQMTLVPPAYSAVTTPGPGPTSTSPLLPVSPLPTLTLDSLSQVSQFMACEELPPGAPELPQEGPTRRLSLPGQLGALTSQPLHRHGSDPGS", "test": "primary screen, population patch clamp on CHO cells stably expressing hERG", "units": {"hERG current change (%, negative = inhibition) at 1uM": "%"}, "values": [{"smiles": "O=C(O)c1ccc(-c2ccccn2)s1", "hERG current change (%, negative = inhibition) at 1uM": 0.95}, {"smiles": "COc1cc(O)c(C(CCN2CCCC(C)C2)c2cc(OC)c(OC)c(OC)c2)c(OC)c1", "note": "(centres unmarked)", "hERG current change (%, negative = inhibition) at 1uM": 6.98}, {"smiles": "CCCCCn1c(=O)c(C(=O)Nc2cccc(C)c2)c(O)c2ccccc21", "hERG current change (%, negative = inhibition) at 1uM": 14}, {"smiles": "COc1ccc(-n2c(N)c(C(=O)NCc3cccnc3)sc2=S)cc1", "hERG current change (%, negative = inhibition) at 1uM": 10.8}, {"smiles": "Cc1ccc(Nc2cc(C)nn2-c2nc(C)cc(C)n2)cc1", "hERG current change (%, negative = inhibition) at 1uM": 10.8}, {"smiles": "Cc1ccc(SCCC(=O)NC(C(C)C)C(C)C)cc1", "hERG current change (%, negative = inhibition) at 1uM": -4.77}, {"smiles": "CCOC(=O)c1sc(NC(=O)CSc2nccn2C)nc1C", "hERG current change (%, negative = inhibition) at 1uM": 2.36}, {"smiles": "CCOC(=O)CC1CCCCN1C(=O)CCCn1nnnc1CN1CCC(C)CC1", "note": "(centres unmarked)", "hERG current change (%, negative = inhibition) at 1uM": 11.9}, {"smiles": "CC(C)CN(C(=O)c1nn(C)c(=O)c2ccccc12)c1nc2ccccc2s1", "hERG current change (%, negative = inhibition) at 1uM": 5.33}, {"smiles": "CC(=O)[C@@H]1[C@@H]2C(=O)N(Cc3ccccc3)C(=O)[C@@H]2C2c3ccccc3C=CN21", "note": "(some centres unmarked)", "hERG current change (%, negative = inhibition) at 1uM": 12.9}, {"smiles": "Nc1ncncc1-c1ccc2ccccc2c1", "hERG current change (%, negative = inhibition) at 1uM": 13.9}, {"smiles": "CCCCNS(=O)(=O)c1ccc(OC)c(Cl)c1Cl", "hERG current change (%, negative = inhibition) at 1uM": -2}, {"smiles": "COCCCNC(=O)c1c(-c2ccccc2)noc1C", "hERG current change (%, negative = inhibition) at 1uM": 12.9}, {"smiles": "O=C(Nc1ccc(F)cc1F)Nc1ccccc1C(=O)NCCN1CCNC1=O", "hERG current change (%, negative = inhibition) at 1uM": 14}, {"smiles": "Cc1ccc(CSC2=NCCN2C(=O)c2ccco2)cc1", "hERG current change (%, negative = inhibition) at 1uM": 3}, {"smiles": "CS(=O)(=O)N(CC(=O)N1CCCCCC1)c1cccc(Cl)c1Cl", "hERG current change (%, negative = inhibition) at 1uM": 14}, {"smiles": "O=C1NC2=C(CCc3ccccc32)C(c2ccccc2)N1", "note": "(centres unmarked)", "hERG current change (%, negative = inhibition) at 1uM": 6.7}, {"smiles": "Cc1ccc(N/C(CSC(N)=O)=N\\S(=O)(=O)c2ccc(C)cc2)cc1", "hERG current change (%, negative = inhibition) at 1uM": 13.9}, {"smiles": "CC(=O)OC1OCCOC1NC(=S)Nc1cccc(C(F)(F)F)c1", "note": "(centres unmarked)", "hERG current change (%, negative = inhibition) at 1uM": 16.7}, {"smiles": "NC(=O)CNC(=O)[C@@H]1CC2(CC(c3cccc([N+](=O)[O-])c3)=NO2)CN1C(=O)c1ccccc1", "note": "(some centres unmarked)", "hERG current change (%, negative = inhibition) at 1uM": 12.8}, {"smiles": "Nc1nc(CN2CCCCCC2)nc(Nc2ccccc2)n1", "hERG current change (%, negative = inhibition) at 1uM": -31.9}, {"smiles": "Cc1ccccc1OCC(=O)NCCN1CCCC1.Cl", "hERG current change (%, negative = inhibition) at 1uM": 3.66}, {"smiles": "CC(=O)c1ccc(N2CCN(C(C)C(=O)NC3CCCc4ccccc43)CC2)cc1", "note": "(centres unmarked)", "hERG current change (%, negative = inhibition) at 1uM": -9.57}, {"smiles": "CNC(=O)Nc1ccc(Cl)cc1", "hERG current change (%, negative = inhibition) at 1uM": 5.01}, {"smiles": "O=C(/C=C/c1ccco1)Oc1cccc2cccnc12", "hERG current change (%, negative = inhibition) at 1uM": 4.54}, {"smiles": "C=CCn1c(O)c(C(C)=NC2CC2)c(=O)[nH]c1=O", "hERG current change (%, negative = inhibition) at 1uM": 8.55}]}]}
